Here are results for 87 molecules from publication PMC4336329 (PLoS ONE, 2015).

About 14,000 (4.5%) of roughly 310,000 compounds showed an effect of 50% or more. Effects have a minus sign here. The list shows a part of the results.
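Note: peak tail current of the secondary pulse compared with the same well before compound.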

The target in this experiment is human ether-à-go-go-related gene (hERG) potassium channel (human, UniProt Q12809). The experiment can be described thus: primary screen, population patch clamp on CHO cells stably expressing hERG.
Sequence of human ether-à-go-go-related gene (hERG) potassium channel (Q12809 whole entry, looked up): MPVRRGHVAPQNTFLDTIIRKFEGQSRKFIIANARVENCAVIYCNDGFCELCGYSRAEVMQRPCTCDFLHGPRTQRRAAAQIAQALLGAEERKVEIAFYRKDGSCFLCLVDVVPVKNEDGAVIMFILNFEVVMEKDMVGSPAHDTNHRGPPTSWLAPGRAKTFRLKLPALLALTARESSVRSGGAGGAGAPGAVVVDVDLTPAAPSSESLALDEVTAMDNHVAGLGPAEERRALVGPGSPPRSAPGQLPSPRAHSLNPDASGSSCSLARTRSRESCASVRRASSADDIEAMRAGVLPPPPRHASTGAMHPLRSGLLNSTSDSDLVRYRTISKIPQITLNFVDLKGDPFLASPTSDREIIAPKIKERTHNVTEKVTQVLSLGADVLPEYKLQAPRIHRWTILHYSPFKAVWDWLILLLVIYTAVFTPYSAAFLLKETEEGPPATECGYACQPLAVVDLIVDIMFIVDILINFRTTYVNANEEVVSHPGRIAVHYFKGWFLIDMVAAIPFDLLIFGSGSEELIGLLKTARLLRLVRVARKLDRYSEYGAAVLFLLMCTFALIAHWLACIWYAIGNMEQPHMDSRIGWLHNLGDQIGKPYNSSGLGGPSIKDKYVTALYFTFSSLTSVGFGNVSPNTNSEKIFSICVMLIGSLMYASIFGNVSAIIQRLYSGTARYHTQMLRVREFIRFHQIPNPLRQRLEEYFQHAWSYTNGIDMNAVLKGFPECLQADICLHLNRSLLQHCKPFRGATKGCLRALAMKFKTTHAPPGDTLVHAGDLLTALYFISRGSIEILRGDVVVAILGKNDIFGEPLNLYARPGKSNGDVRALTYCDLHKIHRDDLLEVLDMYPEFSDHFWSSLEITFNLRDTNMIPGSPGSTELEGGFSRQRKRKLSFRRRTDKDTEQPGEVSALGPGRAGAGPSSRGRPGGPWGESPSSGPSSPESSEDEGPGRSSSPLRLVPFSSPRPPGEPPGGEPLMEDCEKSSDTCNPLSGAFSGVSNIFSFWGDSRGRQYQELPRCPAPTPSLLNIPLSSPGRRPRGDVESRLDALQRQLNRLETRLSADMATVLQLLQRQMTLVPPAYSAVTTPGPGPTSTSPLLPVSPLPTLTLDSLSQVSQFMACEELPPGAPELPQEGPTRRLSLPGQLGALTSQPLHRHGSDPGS
Take `Cc1cc(NC(=O)CCC(=O)N(CC(=O)NCC2CCCO2)c2ccc(C(C)C)cc2)no1` (stereo not drawn): the “hERG current change (%, negative = inhibition) at 10uM” value was 2.63%. To `O=C(Cn1nnc2ccccc2c1=O)NCCc1ccccc1` belongs -15.2%; to `O=C(Nc1cccc(Br)c1)c1cc(=O)c2ccccc2o1`, 19.4%; to `CN(C)CCNC(=O)/C=C/c1cn(-c2ccccc2)nc1-c1cc2ccccc2oc1=O`, 13%. The figure for `CCn1c(SCC(=O)NCc2ccc(F)cc2)nc2c(c1=O)SC(C)C2` (stereo not drawn) is -49.3%; for `COc1ccc(N=C2S/C(=C\c3cc(C)n(C)c3C)C(=O)N2CC(C)C)cc1` it is 2.55%; for `Cn1nc(C(F)(F)F)c(C(=O)Nc2ccc(F)cc2F)c1Sc1ccc(Cl)cc1` it is -4.91%. To `CCC(C(=O)Oc1c(C(C)C)cccc1C(C)C)c1ccccc1` (stereo not drawn) belongs -3.84%; to `O=C(Nc1nnc(-c2ccc(F)cc2)s1)Nc1ccccc1F`, 14.1%. Consider `Cc1ccc(S(=O)(=O)N(C)C)cc1NC(=S)N1CCN(Cc2ccc3c(c2)OCO3)CC1`, for which the “hERG current change (%, negative = inhibition) at 10uM” value is -7.52%.

`CC1CCCC(C)N1S(=O)(=O)c1ccc(NC(=O)c2ccccc2C(=O)N2CCOCC2)cc1` (stereo not drawn): the “hERG current change (%, negative = inhibition) at 10uM” value is on record as -3.57%.

Turning to `CCc1nnc(NS(=O)(=O)c2ccc(NC(=O)c3cccc(OC(F)(F)C(F)F)c3)cc2)s1`, the “hERG current change (%, negative = inhibition) at 10uM” value was -6.51%. The figure for `CCOC(=O)COn1c(-c2cccc(Cl)c2)nc2ccc([N+](=O)[O-])cc21` is 7.63%. To `COc1cccc(-c2csc(NC(=O)Nc3ccccc3)n2)c1` belongs 22.6%; to `O=C(Nc1ccccc1)N1CCCN(c2c(Cl)cncc2Cl)CC1`, -14.2%; to `COc1cc2nc(CC(C)C)n(NC(=O)c3ccccc3)c(=O)c2cc1OC`, 9.36%. For the molecule `O=C(Nc1ccccc1)c1ccc(S(=O)(=O)NCc2cccnc2)cc1`, the “hERG current change (%, negative = inhibition) at 10uM” value is 16%. The figure for `Cc1ccsc1C(=O)OCc1cc(=O)n2ccsc2n1` is -7.96%; for `CC(=O)N(Cc1cccs1)C1CCOC(C)(C)C1` (stereo not drawn) it is 7.75%; for `COc1ccc(NC(=O)CSc2nnc(-c3ccc(F)cc3)o2)cn1` it is -17.4%. To `c1cc2c(cc1Nc1nc(-c3ccc4c(c3)OCO4)cs1)OCCO2` belongs 12.7%; to `COc1cccc2cc(C(=O)N(Cc3ccccc3)CC3CCCO3)c(=O)oc12` (stereo not drawn), -5.9%. To `O=C(CSc1nnc(-c2ccncc2)n1-c1ccccc1Cl)Nc1ccc(C(=O)O)cc1` belongs 17%.

Turning to `COc1ccccc1-c1csc(NC(=O)c2ccc(N3C(=O)CCC3=O)cc2)n1`, the “hERG current change (%, negative = inhibition) at 10uM” value is on record as 7.17%. On to `COC(=O)Cn1c2c(c3cc(C)ccc31)CCCC2NC(C)c1ccccc1` (stereo not drawn), for which the “hERG current change (%, negative = inhibition) at 10uM” value is given as -26.2%.

For the molecule `O=C(c1cc(COc2cccc3cnccc23)on1)N1CCC(c2ccccc2Cl)C1` (stereo not drawn), the “hERG current change (%, negative = inhibition) at 10uM” value amounted to 16%. To `COc1ccc(C2C(C(=O)Nc3cc(OC)c(OC)c(OC)c3)c3ccccc3C(=O)N2C)cc1` (stereo not drawn) belongs 6.78%. The figure for `Cc1csc(NC(=O)CCCSc2nc3ccccc3s2)n1` is -35.1%; for `COc1ccc(OC)c2sc(NC(=O)CCSc3ccccc3)nc12` it is 12.8%.

For the molecule `Cc1ccc(N(CC(=O)N/N=C/c2ccc(OC3CSC3)cc2)S(=O)(=O)c2ccccc2)c(C)c1`, the “hERG current change (%, negative = inhibition) at 10uM” value is -0.595%. To `O=C1COc2ccccc2N1Cc1c(F)cccc1Cl` belongs -22.3%; to `O=C(CCl)Nc1cccc(Oc2ccccc2)c1`, -22.4%; to `ClC(Cl)(Cl)c1nc2ccccc2n2nncc12`, 19.6%. The figure for `Cc1ccc(S(=O)(=O)C(NC(=O)c2ccccc2)=C(Cl)Cl)cc1` is 8.78%; for `N#Cc1nc(COc2ccc(F)cc2)oc1NCCN1CCOCC1` it is -12.9%.

For `CC1CCCCN1CC(=O)NC(c1ccccc1)c1ccccc1.O=C(O)C(=O)O` (stereo not drawn), the “hERG current change (%, negative = inhibition) at 10uM” value is -65.8%.

Take `COc1ccc(Cn2nnnc2C(C(C)C)N(Cc2ccco2)Cc2cccs2)cc1` (stereo not drawn): the “hERG current change (%, negative = inhibition) at 10uM” value came to 6.54%.

As to `CN(CC(=O)NCc1ccc2c(c1)OCO2)S(=O)(=O)c1ccc(F)cc1`, the “hERG current change (%, negative = inhibition) at 10uM” value was -8.53%. To `Cc1nc(N2CCc3ccccc3C2)[nH]c(=O)c1Cc1ccccc1` belongs 9.21%; to `CCC(=O)N1CCc2cc(Br)cc(S(=O)(=O)CCC(=O)N(CC)CC)c21`, 27.3%; to `CC(C)CN(C(=O)CN1CCN(c2cccc(Cl)c2)CC1)c1c(N)n(CC(C)C)c(=O)[nH]c1=O`, 16%. To `Cc1cc(C)nc(N2C(=O)CC(Cc3ccccc3)C2=O)n1` (stereo not drawn) belongs 12.7%; to `Cc1ccsc1-c1nc(CN2CCCC2c2ccc(F)cc2)c(C)o1` (stereo not drawn), 24.9%; to `CC1CCCCN1Cc1nc2c(c(=O)n(C)c(=O)n2C)n1Cc1c(F)cccc1Cl` (stereo not drawn), -12.5%. As to `O=[N+]([O-])c1ccc(Cl)c([N+](=O)[O-])c1`, the “hERG current change (%, negative = inhibition) at 10uM” value is recorded as -3.52%. The figure for `CC1=NN(C(=O)c2cccnc2)C(O)(C(F)(F)F)C1` (stereo not drawn) is 4.35%. The figure for `CC(C)Oc1ccc(NC(=O)c2ccncc2)cc1` is 10.9%; for `Nc1nc(NCC2CCCO2)nc(Nc2ccccc2F)c1[N+](=O)[O-]` (stereo not drawn) it is 25.5%; for `Cc1cccc(Cn2c(=O)c3c(nc4n3CCN4Cc3ccco3)n(C)c2=O)c1` it is -52.2%.

As to `COc1ccc(CCNC(=O)c2ccc(CS(=O)(=O)Cc3cccc(C)c3)o2)cc1OC`, the “hERG current change (%, negative = inhibition) at 10uM” value amounted to 3.27%. As for `CN(C)c1nc(Oc2ccc(N)cc2)nc(N(C)C)n1`, the “hERG current change (%, negative = inhibition) at 10uM” value is 3.67%.

As for `Cc1cccc(OCC(=O)NCC(=O)N/N=C/c2ccccc2)c1`, the “hERG current change (%, negative = inhibition) at 10uM” value worked out at 4.9%. The figure for `O=S(=O)(c1ccc2c(c1)OCCO2)N1CCC(n2nnc3cc(F)ccc32)CC1` is -38.7%; for `Cc1cc(S(=O)(=O)NCc2ccc(S(N)(=O)=O)cc2)c(C)s1` it is -5.12%; for `CCSc1ccc([C@@H]2[C@H]3C(=O)N(C)C(=O)[C@H]3[C@]3(C(=O)OC)CCCCN23)cc1.O=C(O)C(F)(F)F` it is 5.34%. The figure for `CCSC1=C(C#N)C(CC(C)C)C2=C(CCCC2=O)N1` (stereo not drawn) is 5.34%; for `Cc1cc(N)nc(SCC(=O)N2C(C)CCCC2C)n1` (stereo not drawn) it is 13.7%; for `CCOc1ccc(C2=Nn3c(nnc3-c3ccc(OC)cc3)SC2)cc1` it is -16%. The figure for `Cc1nn(C)c(Cl)c1CN1CCC(Oc2ccc(C(=O)N3CCCC3)cc2)CC1` is -0.868%; for `CC(C)Oc1ccccc1OCCCCn1cnc2ccccc2c1=O` it is -43.1%; for `O=C(Cn1ccc(=O)[nH]c1=O)Nc1ccc(C(=O)O)c(O)c1` it is 23.9%. As for `CC(CCc1ccccc1)NC(=O)COC(=O)C1CCC(C(C)(C)C)CC1` (stereo not drawn), the “hERG current change (%, negative = inhibition) at 10uM” value is listed as 7.2%. The figure for `NC(=O)C1CCN(C(=O)COCc2cc(-c3ccc4c(c3)OCO4)on2)CC1` is 6.4%. The figure for `O=C(COc1ccccc1)NCC(c1ccco1)N1CCCCC1` (stereo not drawn) is -15.7%; for `Cc1cc(C)c(C#N)c(SCc2[nH]nc3c2C(c2ccccc2)C(C#N)=C(N)O3)n1` (stereo not drawn) it is 0.663%.

`CC(O)Cn1ccccc1=N` (stereo not drawn): the “hERG current change (%, negative = inhibition) at 10uM” value amounted to 4.9%. For the molecule `O=S(=O)(c1ccccc1)N1CCN(C(=S)Nc2ccc(F)cc2)CC1`, the “hERG current change (%, negative = inhibition) at 10uM” value was -3.33%. The figure for `Cc1ccc(NC(=O)Cn2c(=O)n(CCCCC(=O)NCc3ccco3)c(=O)c3ccccc32)cc1` is -1.81%; for `CCOC(=O)Cc1cc(=O)n2[nH]c(C(C)(C)C)cc2n1` it is 15.5%. The figure for `Cc1c(N)cccc1N` is 9.7%; for `COc1ccc2cc(/C(C)=N/NC(=O)C3CC3)ccc2c1` it is 1.9%; for `O=C(c1ccc2ccccc2c1)C1CCCN(C(=O)CN2C(=O)CSC2=O)C1` (stereo not drawn) it is -27.6%. The figure for `Cc1ccc(C(c2nnnn2CCc2ccccc2)N2CCC(C)CC2)cc1.Cl` (stereo not drawn) is 13.8%. Take `COC(=O)C1=C(C)NC2=C(C(=O)CCC2)C1c1cn(Cc2ccc(Cl)cc2Cl)nc1-c1ccccc1` (stereo not drawn): the “hERG current change (%, negative = inhibition) at 10uM” value is reported as -7.7%.

Consider `O=C(NCC(=O)N(Cc1ccco1)C(C(=O)NC1CCCC1)c1cccnc1)c1ccco1` (stereo not drawn), for which the “hERG current change (%, negative = inhibition) at 10uM” value stood at 14%.

On to `CCNc1nc(Nc2ccc(C)c(Cl)c2)c2cnn(C)c2n1`, for which the “hERG current change (%, negative = inhibition) at 10uM” value was -4.01%. Take `NC(=O)CSc1nnc2sc3ccccc3n12`: the “hERG current change (%, negative = inhibition) at 10uM” value is given as -17.5%. In the case of `CSc1ccccc1OCc1cc(C(=O)NCCN2CCCc3ccccc32)no1`, the “hERG current change (%, negative = inhibition) at 10uM” value was -3.86%. To `COc1ccc(C2C3=C(N=C4SCC(=O)N42)c2ccccc2CC3)cc1OC` (stereo not drawn) belongs 3.54%; to `COc1cc(CNC2CCCC2)c(Br)cc1OCc1ccccc1.Cl`, -72.1%. The figure for `O=S(=O)(Nc1ccc(N2CCCCC2)cc1)c1ccc(F)cc1` is 15.1%; for `CC12CCC(=O)N1C(C(=O)NCCc1ccc(S(N)(=O)=O)cc1)CS2` (stereo not drawn) it is 15.1%; for `Brc1cccc(-c2nnc(SCc3nc4ccccc4[nH]3)o2)c1` it is 1.23%. For the molecule `Nc1nc(SCC(=O)O)[nH]c(=O)c1NC(=O)c1ccco1`, the “hERG current change (%, negative = inhibition) at 10uM” value is on record as 16.5%. Consider `Cc1ccc(COC(=O)c2nn(-c3ccccc3)nc2N)cc1`, for which the “hERG current change (%, negative = inhibition) at 10uM” value is 1%. The figure for `O=C(CNCc1ccncc1)Nc1cc(S(=O)(=O)N2CCCCC2)ccc1Cl` is -63.9%; for `CCOc1ccc2nc(-c3ccc(OC)c(OC)c3)cc(C(=O)O)c2c1` it is 21.3%.
